Laboratory results from PubChem BioAssay AID493208 (National Center for Advancing Translational Sciences (NCATS), 2011).
The whole screen tested about 44,000 compounds, of which about 340 (0.77%) were called active. Roughly 5% stayed inconclusive and do not appear here. Calls come from the whole dose curve; as a rule, active = well fitted inhibition curve with a large enough effect; inconclusive = small, poorly fitted or top-dose-only effect; inactive = flat fitted curve, though single readings scatter. This is one part of the list.

test: Acumen qHTS Assay for Inhibitors of the mTORC1 Signaling Pathway in MEF (Tsc2-/-, p53-/-) Cells: Sytravon; conditions: phospho-rpS6 immunofluorescence/PI, 24 h; series mostly up to 38.3 µM; activity change, negative = inhibition: at the top concentration; note: nearly all actives have a fitted effect of over 50% in size;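 for activity change, negative = inhibition: plate controls were DMSO for no effect and rapamycin for full effect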
Outline: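 Tsc2-/-, p53-/- MEFs (empty-vector stable line) in DMEM + 10% FBS were treated with compounds 24 h at 37 degree Celsius, fixed, and immunostained for phospho-rpS6 (Alexa-488) with propidium iodide counterstain. Laser-scanning cytometry gave % positive cells, normalized against 7.5 nM rapamycin and DMSO.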
Potency is the fitted concentration of half-maximal effect.

SMILES | activity change, negative = inhibition | Potency
Cc1cccc(-n2c(-c3ccco3)nc3c(cnn3-c3ccccc3C)c2=O)c1 | inactive: 1.35% | 
Cc1ccc(C(c2sc3nc(-c4ccco4)nn3c2O)N2CCOCC2)cc1 (stereo not given) | inactive: -0.592% | 
COc1ccccc1NC(=O)CSc1nc2ccccc2c(=O)n1CCC(=O)NC1CCCCC1 | inactive: 0.762% | 
O=C(CN1CCN(Cc2ccc(F)cc2Cl)S1(=O)=O)Nc1ccc(F)cc1 | inactive: -2.3% | 
Cc1ccc(Cn2nc(C)c(NC(=O)c3cc(-c4ccc(F)cc4)on3)c2C)cc1 | inactive: -16.9% | 
Cc1nn(C(=O)c2ccccc2)c(C)c1Sc1ccc(Cl)cc1 | inactive: -2.73% | 
CCOc1ccc(NC(=O)Cn2c(=O)oc3cc(S(=O)(=O)NC4CCCC4)ccc32)cc1 | inactive: -6.69% | 
Cc1ccc(NC(=O)Cn2c(C)cc(C)c(C#N)c2=O)cc1 | inactive: 28.8% | 
Cc1ccccc1NC(=O)C1CCC(CNS(=O)(=O)c2ccc3c(c2)C(C)(C)C(=O)N3C)CC1 (stereo not given) | inactive: 0% | 
CCOc1ccc(CCNC(=O)c2cn(C)c3ccc(S(=O)(=O)N4CCOCC4)cc3c2=O)cc1OCC | inactive: 1.32% | 
Cc1ccc(-n2ncc3c(N(C)Cc4ccccc4)ncnc32)cc1 | inactive: 11.8% | 
Cc1cc(NS(=O)(=O)c2ccc(NC(=O)c3ccccc3F)cc2)nc(C)n1 | inactive: -7.76% | 
COc1ccc(OCc2ccc(-c3nc(C#N)c(N4CCC(C)CC4)o3)o2)cc1 | inactive: -1.68% | 
CCCNC(=O)C(=O)NCC(c1ccc2c(c1)OCO2)N1CCOCC1 (stereo not given) | inactive: -14.4% | 
Cc1ccc(NC(=O)c2ccc3snnc3c2)cc1Cl | inactive: 4.49% | 
CCc1ccc(S(=O)(=O)c2nnn(-c3ccc(F)cc3)c2N)cc1 | inactive: -1.9% | 
C=C(C)Cn1c(SCC(=O)Nc2cc(C)ccc2C)nc2sc3c(c2c1=O)CCCC3 | inactive: -17.8% | 
CCC(=O)N1CCc2cc(Br)cc(S(=O)(=O)CCC(=O)N3CCN(c4ccccc4OC)CC3)c21 | inactive: -0.0101% | 
CCOC(=O)c1ccc(N2CCN(c3ccc(F)cc3)CC2)c(NC(=O)Nc2cccc(OC)c2)c1 | inactive: -0.295% | 
COc1ccc(-c2ccnc3[nH]n(-c4ccccc4)c(=O)c23)cc1 | inactive: 2.61% | 
COc1ccccc1N1CCN(S(=O)(=O)c2ccc3[nH]c4c(c3c2)CCCC4)CC1 | inactive: -0.325% | 
CCOc1cc(-c2nnc(SCC(=O)NCc3ccccc3)nc2-c2ccc(OC)c(OCC)c2)ccc1OC | inactive: -14.4% | 
CCc1ccc(NC(=O)C2CCCN(S(=O)(=O)c3ccc4c(c3)CCCN4C(C)=O)C2)cc1 (stereo not given) | inactive: 0.158% | 
Cc1ccc(-n2ncc(C(=O)N3CCCCC3)c2C2CCN(C(=O)OC(C)(C)C)CC2)cc1C | inactive: 3.69% | 

SMILES | activity change, negative = inhibition | Potency
COc1ccc(C(=O)N2CC(=O)Nc3ccc(C)cc3C2c2ccccc2)c(OC)c1 (stereo not given) | inactive: 3.4% | 
COc1ccc(Cn2c(C(=O)O)c(CNCCc3cccs3)c3ccc(C)cc32)cc1 | inactive: -8.64% | 
COc1ccccc1CNC(=O)c1ccc2c(c1)N(Cc1cccc(Cl)c1)C(=O)c1ccccc1S2(=O)=O | inactive: -15.9% | 
Cc1ccc(Cn2c(C(=O)O)c(CNC3CCCCCC3)c3ccc(C)cc32)cc1 | inactive: 0.955% | 
Cc1ccc(NC(=O)Cn2c(=O)n(CCC(=O)N3CCc4ccccc4C3)c(=O)c3ccccc32)cc1 | inactive: 3.44% | 
Cc1cc(C)cc(S(=O)(=O)Nc2cccc(-c3ccc(N4CCOCC4)nn3)c2)c1 | inactive: 0.815% | 
CC(=O)c1ccc(NC(=O)Cn2c(=O)c3cccn3c3ccccc32)cc1 | inactive: 10.4% | 
Cc1oc2ncn(CC(C)C)c(=O)c2c1C(=O)Nc1cc(F)ccc1F | inactive: 2.3% | 
CC(C)(C)C(=O)NCCc1nc2ccccc2n1CCCCOc1ccc(Cl)cc1 | inactive: -17.6% | 
COc1ccc(-n2nc3c(N4CCCC(C(=O)NCc5cccc(F)c5)C4)nnc(C)c3c2C)cc1 (stereo not given) | inactive: -20.5% | 
Cc1ccc(C)c(OCCn2cc(C(=O)c3ccco3)c3ccccc32)c1 | inactive: -14.4% | 
CCn1c(CNC(=O)C23CC4CC(CC(C4)C2)C3)nnc1SCC(=O)Nc1ccccc1 | inactive: 1.64% | 
COc1cccc(CNC(=O)c2cc3c(s2)-c2c(C)cccc2OC3)c1 | inactive: 0.425% | 
COc1ccc(-c2nc(CNS(=O)(=O)c3ccccc3)cs2)cc1 | inactive: -0.784% | 
O=C(Oc1ccc(F)cc1)c1nc(SCc2ccccc2F)ncc1Cl | inactive: -2.85% | 
Cc1oc2ncn(C)c(=O)c2c1C(=O)N1CCN(c2ccccc2)CC1 | inactive: 6.42% | 
COc1ccccc1C(=O)NC1(C(F)(F)F)C(=O)Nc2c1c(=O)[nH]c(=O)n2-c1ccccc1 (stereo not given) | inactive: 3.74% | 
Cn1c(=O)c2c([nH]c(=O)n2Cc2ccc(Cl)cc2Cl)n(C)c1=O | inactive: 6.64% | 
Cc1ccc2c(c1)-c1nc(-c3ccc4c(c3)NC(=O)CO4)cc(-c3ccc(Cl)cc3)c1CO2 | inactive: 2.79% | 
Cc1ccc2nc(N3CCN(C(=O)C4CC4)CC3)sc2c1 | inactive: 2.5% | 
CC1CCCN(CCCNC(=O)c2cn(C)c3ccc(S(=O)(=O)N(C)C4CCCCC4)cc3c2=O)C1 (stereo not given) | inactive: -3.91% | 
Cc1ccc(NS(=O)(=O)c2ccc3nc(-c4ccccc4)[nH]c3c2)c(Cl)c1 | inactive: 6.51% | 
CCOC(=O)c1ccccc1NC(=O)c1cc2c(=O)oc3ccc(C)cc3c2s1 | inactive: -0.575% | 
CCCc1c(C)c2ccc(O)c(CN3CCN(c4ccc(F)cc4)CC3)c2oc1=O | inactive: 2.3% | 

SMILES | activity change, negative = inhibition | Potency
COc1ccccc1CNC(=O)CN1C(=O)CSc2ccc(S(=O)(=O)N3CCCCC3)cc21 | inactive: -8.95% | 
COC(=O)c1c(Oc2ccc(C(C)=O)cc2)nnc(-c2ccccc2)c1-c1ccccc1 | inactive: 2.46% | 
CCN(c1ccccc1)c1ncnc2c1cnn2-c1ccc(C)cc1C | inactive: -3.4% | 
Cc1ccc(NC(=O)Cn2cc3c(n2)CCCCC3)cc1 | inactive: -11.7% | 
Cc1ccc(S(=O)(=O)Nc2cccc(-c3cn4cccc(C)c4n3)c2)cc1 | inactive: 1.83% | 
Cc1cccc(N2CCN(C(=O)c3c(C)oc4ncnc(N5CCCCC5)c34)CC2)c1C | inactive: 0.484% | 
Cc1ccc(C)c(Nc2nc3c(S(=O)(=O)c4ccc(C(C)C)cc4)nnn3c3ccsc23)c1 | inactive: -2.06% | 
CCc1ccc(C2CC(=O)Nc3cc4c(cc32)OCO4)cc1 (stereo not given) | inactive: -1.04% | 
CCOC(=O)c1noc2nc(C)n(CC(=O)Nc3ccccc3F)c(=O)c12 | inactive: -1.72% | 
CC(C)CN(CCCNC(=O)CN1C(=O)CSc2ccc(S(=O)(=O)N3CCOCC3)cc21)CC(C)C | inactive: 12.8% | 
CCOc1ccc(CNC(=O)CSc2nnc(C)c3c(C)n(-c4ccccc4)nc23)cc1 | inactive: -0.0811% | 
Cc1ccccc1CCNC(=O)c1ccc2c(c1)c(C)c(C)n2Cc1ccccc1 | inactive: -2.17% | 
CCc1ccccc1N1C(=O)N(Cc2ccccc2C)c2ccccc2S1(=O)=O | inactive: 2.37% | 
COc1ccc(S(=O)(=O)n2ccnc2)cc1C(C)(C)C | inactive: 0.767% | 
COc1ccc(OC)c2sc(N3CCN(C(=O)C4CC4)CC3)nc12 | inactive: -11.4% | 
COc1ccc(OC)c(-n2cnc3cc(C(=O)NC4CCCCCC4)ccc32)c1 | inactive: -0.764% | 
COc1ccccc1NC(=O)c1cnc(SCC(=O)N2CCCc3ccccc32)n(C)c1=O | inactive: 1.57% | 
COc1ccc(-c2cc(C)nc3c(-c4ccc(OC)c(OC)c4)c(C)nn23)cc1 | inactive: -1.42% | 
COc1ccc(N2CCN(C(=O)c3cc4ccc5cccnc5c4[nH]3)CC2)cc1 | inactive: 2.41% | 
CSc1ccc(-c2nc3ccc(C)cn3c2Nc2ccccc2C)cc1 | inactive: -6.4% | 
Cc1cccc(-c2nnn3c2nc(NCCc2ccc(S(N)(=O)=O)cc2)c2cc(Cl)ccc23)c1 | inactive: 2.59% | 
CS(=O)(=O)N(CC(=O)NCCc1ccccc1)c1cc(C(F)(F)F)ccc1Cl |  | active: 6.56 µM
CCCCCn1c(=O)[nH]c2cc(C(=O)N3CCN(c4cccc(C)c4)C(C)C3)ccc2c1=O (stereo not given) | inactive: 1.46% | 
Cc1cccc(Oc2nc3c(c(=O)n(C)c(=O)n3C)n2C)c1 | inactive: 7% | 

SMILES | activity change, negative = inhibition | Potency
O=C(NCC12CC3CC(CC(C3)C1)C2)c1cc2nc(-c3ccccc3)cc(C(F)(F)F)n2n1 | inactive: 4.14% | 
O=C1CCCc2cc(S(=O)(=O)NCC3CCC(C(=O)Nc4ccccc4F)CC3)ccc2N1 (stereo not given) | inactive: -0.129% | 
Fc1cc(Br)ccc1Nc1c2c(nc3nc(-c4cccs4)nn13)CCCC2 | inactive: 0% | 
CC(NC(=O)c1ccccc1NC(=O)c1nsc2ccccc12)c1ccccc1 (stereo not given) | inactive: -4.94% | 
COc1ccc(OC)c(CCNc2ncnc3onc(-c4ccc(F)cc4)c23)c1 | inactive: -2.15% | 
COC(=O)c1ccc(OC)c(Cn2c(=O)n(Cc3ccccc3)c(=O)c3c2c2cc(OC)ccc2n3C)c1 | inactive: -2.98% | 
CC(=O)c1ccc(NC(=O)C2=CC(c3ccc4c(c3)OCO4)=NS(=O)(=O)N2C)cc1 | inactive: -3.6% | 
COc1ccc(-c2ccc(=O)n(CC(=O)Nc3ccc(C)cc3C)n2)cc1 | inactive: 0.651% | 
COc1ccc(-c2noc(CCC(=O)NCc3ccc(C)cc3)n2)cc1 | inactive: -22% | 
O=c1n(Cc2cccc(C(F)(F)F)c2)c2ccccc2c2nc(-c3ccccc3)nn12 | inactive: 4.84% | 
Cc1ccc(-c2ccc(CCC(=O)O)n2-c2cccc(O)c2)cc1 | inactive: -7.28% | 
Cc1ccc(CNC(=O)CCCCCn2c(=O)c3sccc3n(CC(=O)N(C)c3ccccc3)c2=O)cc1 | inactive: -5.82% | 
Cc1ccc(C(=O)Nc2ccc3oc(-c4ccc(C(C)(C)C)cc4)nc3c2)cc1 | inactive: -4.81% | 
CSc1nn(Cc2ccc(Cl)cc2)c(N(C(C)=O)C(C)=O)c1S(=O)(=O)c1ccccc1 | inactive: -18.3% | 
CCc1ccc2oc(C(=O)Nc3cccc(C(F)(F)F)c3)cc(=O)c2c1 | inactive: 4.39% | 
Cc1ccc(NC(=O)c2cc(C)nc3c2c(C)nn3-c2cccc(Cl)c2C)c(C)c1 | inactive: -0.203% | 
Cc1cccc(Cn2c(=O)n(CCc3ccccc3)c(=O)c3c(C)c(C)sc32)c1 | inactive: 0.298% | 
C#CCOc1ccc(-c2nnc(Nc3cccc(C)c3)c3ccccc23)cc1 | inactive: -10.3% | 
Cc1ccc(NS(=O)(=O)c2ccc3[nH]c(=O)ccc3c2)cc1N(C)C | inactive: -0.843% | 
CCn1cc(C(=O)NCc2ccccc2OC)c(=O)c2cc(S(=O)(=O)N3CCCCC3)ccc21 | inactive: 4.55% | 
CCn1c(=O)cc(SCC(=O)NCCc2ccc(Cl)cc2)c2ccccc21 | inactive: -13.4% | 
CCOC(=O)C1CCC(CN(Cc2ccc(Cl)cc2)S(=O)(=O)c2ccc(F)c(C(=O)Nc3cccc(F)c3)c2)CC1 (stereo not given) | inactive: 4.05% | 
COc1ccc(/C=C/C(=O)Nc2sc3c(c2C(N)=O)CCCC3)cc1 | inactive: 11% | 
